Reference: PubChem BioAssay AID1476 (National Center for Advancing Translational Sciences (NCATS), 2009)
About 4,500 (2.2%) of roughly 200,000 compounds were called active. This list was built around the results that the source calls inconclusive (neither active nor inactive); the mix of calls is not that of the screen. Calls follow the shape of the dose curve; as a rule, active = well fitted inhibition curve with a large enough effect; inconclusive = small, poorly fitted or top-dose-only effect, or effect the other way; inactive = flat fitted curve, though single readings scatter. A potency beside an inconclusive call is a rough fit, not a confirmed value. Some structures have more than one record in an assay (separate samples or runs), and their calls can disagree.

Biological target: Cruzipain (Trypanosoma cruzi) (UniProt P25779)
Assay: qHTS Assay for Promiscuous and Specific Inhibitors of Cruzain (without detergent); also: nearly all actives have a fitted effect of over 40% in size
Conditions: purified cruzain, Z-FR-AMC fluorescence, no detergent
Method: Cruzain is a cysteine protease from the tropical parasite Trypanosoma cruzi. Dual qHTS experiment was performed against the NCGC compound collection in order to 1) identify novel inhibitors of the enzyme and 2) profile the compound collection for promiscuous inhibitors operating via colloidal aggregation (by performing detergent-free and detergent-containing comparison screens). Cruzain was assayed by the use of fluorogenic coumarin-based substrate Z-FR-AMC: proteolytic cleavage releases AMC, whose fluorescence is measured at 360 nm excitation and 450 nm emission. Purified cruzain was supplied by the labs of Prof. James McKerrow and Brian Shoichet, UC San Francisco.
This assay had 0.00005% Triton X-100 concentration. See also releated assay "qHTS Assay for Promiscuous and Specific Inhibitors of Cruzain (with detergent)" with 0.01% Triton X-100.
See following references for additional details:
Assay Provider: Shoichet, Brian; University of California, San Fancisco
Screening Center PI: Austin, C.P.
Screening Center: NIH Chemical Genomics Center [NCGC]
Buffer: 100 mM Sodium Acetate, pH 5.5, 5 mM DTT, Triton X-100 concentration: 0.01%.
Buffer in columns 3 and 4 as negative control (no enzyme).
Substrate solution: 2 uM final concentration of Z-FR-AMC (catalog number I-1160, Bachem) dispensed throughout the plate.
Enzyme: 1.5 nM Cruzain final concentration in columns 1, 2, 5-48. Column 1 is neutral (100% activity). Column 2 contained titration of covalent inhibitor K11777, starting concentration 1 mM, then 1:2 dilution in duplicate).
Three uL of enzyme or buffer were dispensed to 1536-well Greiner black solid bottom plates. Compounds and controls (23 nL) were transferred via Kalypsys PinTool. The plates were incubated for 15 min at room temperature, and then 1 uL of substrate solution was added to start the reaction. The plates were immediately transferred to and read 4 times every 30 seconds for 2 min on ViewLux High-throughput CCD imager (Perkin-Elmer) using 360 nm excitation and 450 nm emission fluorescence protocol. The fluorescence intensity difference between the third and the first time points (time lapse of 60 seconds) was used to compute reaction progress.
Potency is read from the fitted curve at half-maximal effect; tags tell the direction and shape of the fitted curve.

Chain of UniProt P25779 (P25779 whole entry, looked up): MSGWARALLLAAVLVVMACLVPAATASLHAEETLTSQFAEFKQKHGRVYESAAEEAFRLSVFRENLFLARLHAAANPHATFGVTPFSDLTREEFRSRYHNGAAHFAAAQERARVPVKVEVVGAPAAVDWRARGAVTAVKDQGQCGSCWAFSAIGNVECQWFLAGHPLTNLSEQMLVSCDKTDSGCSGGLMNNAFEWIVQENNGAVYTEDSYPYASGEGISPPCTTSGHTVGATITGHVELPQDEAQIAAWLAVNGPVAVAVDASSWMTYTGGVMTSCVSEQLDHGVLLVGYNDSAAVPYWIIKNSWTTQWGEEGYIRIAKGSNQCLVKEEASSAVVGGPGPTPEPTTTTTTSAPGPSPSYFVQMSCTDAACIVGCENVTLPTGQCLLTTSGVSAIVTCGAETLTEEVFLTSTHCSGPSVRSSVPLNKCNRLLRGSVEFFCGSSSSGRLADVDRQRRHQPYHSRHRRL

SMILES	Potency	max response, negative = inhibition
COc1ccc(/C=N/NC(=O)c2ccc(Br)cc2)cc1Cn1cc(Cl)cn1	inconclusive: 31.6 µM [inhibitor, single point]	–
CCCCCC1=C2CNC(C)(C(=O)OC)C=C2C(C)C1=O (configuration not stated)	–	inactive: -4.53%
C/C(=N\NC(=O)CNC(=O)C(c1ccccc1)c1ccccc1)c1ccccc1	active: 12.6 µM	–
O=C(NC1CCCc2ccccc21)C1CCN(S(=O)(=O)c2ccccc2F)CC1 (configuration not stated)	inconclusive: 31.6 µM [inhibitor, single point]	–
COc1ccc(C(=O)c2cn(Cc3ccc(C)cc3)c3cc4c(cc3c2=O)OCO4)cc1	–	inactive: -7%
Cc1noc(C)c1CSc1nnc(-c2ccncc2)n1-c1ccc(Cl)c(Cl)c1	inconclusive: 25.1 µM [activator, single point]	–
Cc1ccc2nc(-c3ccc(NC(=O)COc4c(C)ccc(C)c4C)cc3)sc2c1	inconclusive: 3.98 µM [inhibitor, single point]	–
Nc1ccc(Nc2ccccc2)cc1	inconclusive: 31.6 µM [inhibitor, single point]	–
CC(=O)Oc1oc(-c2ccccc2)nc1/C=N/c1ccccn1	active: 12.6 µM	–
CCOc1ccc(CCNC(=O)Cn2nnc(-c3ccc(OC)c(OC)c3)n2)cc1OCC	inconclusive: 15.8 µM [activator, partial curve]	–
Cc1cccn2c(=O)c3cc(C#N)c(=O)n(CC4CCCO4)c3nc12 (configuration not stated)	inconclusive: 39.8 µM [inhibitor, single point]	–
COc1ccc(-c2csc(N3C(=O)CNC3=S)n2)cc1	inconclusive: 39.8 µM [inhibitor, single point]	–
CCCN1C(=O)/C(=C/c2ccc(N3CCCC3)c(C)c2)NC1=S	inconclusive: 31.6 µM [inhibitor, single point]	–
Cc1ccc(CNC(=O)c2ccc3c(c2)N(Cc2ccccc2F)C(=O)c2ccccc2S3(=O)=O)cc1	inconclusive: 39.8 µM [inhibitor, single point]	–
COc1ccc(-c2nc(-c3ccccc3)c(-c3ccccc3)[nH]2)cc1Br	active: 3.16 µM	–
Oc1c(I)cc(Cl)c2cccnc12	active: 12.6 µM	–
CCCC12CN3CC(CCC)(CN(C1)C3c1c[nH]c3ccccc13)C2=O (configuration not stated)	–	inactive: -12.3%
CCOc1cc(/C=C(\C#N)c2nc(-c3cccs3)c(NC(C)=O)s2)ccc1O	inconclusive: 25.1 µM [activator, single point]	–
CSc1nccc(-c2nn(-c3ccc(C)cc3)ccc2=O)n1	–	inactive: 2.12%
Cc1c(Cl)cccc1NC(=O)c1cnc2sc(N3CCCC3)nn2c1=O	–	inactive: 4.05%
CCc1nnc2c(NCc3ccccc3OC)nc3ccccc3n12	–	inactive: 6.32%
CCOc1ccc(CC(=O)Nc2nnc3n2CCS3)cc1	–	inactive: 8.29%
CCC(=O)N1CCc2cc(S(=O)(=O)NCCC(=O)Nc3ccc(OC)c(Cl)c3)ccc21	–	inactive: 2.32%

SMILES	Potency	max response, negative = inhibition
CCOC(=O)C1OC1c1ccccc1 (configuration not stated)	–	inactive: 2.9%
Cc1cc(C(F)(F)F)n(-c2nc(C(=O)N/N=C/c3ccc(F)cc3)cs2)n1	inconclusive: 7.94 µM [activator, full curve]	–
O=C(CSc1nc2ccccc2c(=O)n1CCC(=O)NC1CCCCC1)Nc1ccccc1Cl	–	inactive: 5.15%
CCOc1ccc(-c2cc(NC(=O)Cn3ncc4c3-c3ccccc3OC4)on2)cc1OCC	inconclusive: 20 µM [activator, single point]	–
Cc1cc(C)n2nc(SCc3nnc(SCc4ccccc4Cl)s3)nc2n1	inconclusive: 31.6 µM [activator, single point]	–
COc1ccc(CCNC(=O)c2cc(-c3ccccc3)nc3ccccc23)cc1OC	inconclusive: 39.8 µM [activator, single point]	–
Cc1ccc(Cl)cc1NC(=O)CN(C)S(=O)(=O)c1ccc2c(c1)n(C)c(=O)c(=O)n2C	–	inactive: -2.74%
Cc1cccc(C)c1Nc1c(-c2ccc(Cl)s2)nc2ncccn12	–	inactive: -4.23%
CC(=O)c1cccc(NC(=O)C(OC(=O)/C=C/c2ccc3c(c2)OCO3)c2ccccc2)c1 (configuration not stated)	active: 10 µM	–
Cc1cc(C)c2nc(-c3ccccn3)cc(C(=O)Nc3cc(C)on3)c2c1	inconclusive: 7.94 µM [activator, full curve]	–
CC(C)C(=O)OC1=CN(Cc2ccccc2)S(=O)(=O)c2ccccc21	–	inactive: -14.4%
CCOC(=O)C(Cc1ccc(NC(=O)/C(=C\c2ccccc2)NC(=O)c2ccccc2)cc1)N1C(=O)c2ccccc2C1=O (configuration not stated)	inconclusive: 31.6 µM [inhibitor, single point]	–
O=C(Nc1ccccc1)Nc1nnc(Cc2ccc([N+](=O)[O-])cc2)s1	inconclusive: 39.8 µM [inhibitor, single point]	–
O=C(COC(=O)c1ccc(S(=O)(=O)N2CCOCC2)cc1)NC1CCCCCC1	inconclusive: 31.6 µM [activator, partial curve]	–
CCCCOc1ccc(-c2cc3c(=O)n(CC(=O)Nc4ccc(Cl)cc4Cl)ccn3n2)cc1	–	inactive: -13.7%
CSc1nnc2c3cc(C)ccc3n(Cc3ccccc3)c2n1	active: 25.1 µM	–
O=C(CSc1nc2c(cnn2-c2ccc(F)cc2)c(=O)[nH]1)Nc1ccc(Br)cc1	–	inactive: -2%
Cc1cc(NC(=O)Cc2cccs2)no1	–	inactive: -27.6%
CCOc1ccc(/C=N/NC(=O)Cc2csc(Nc3cccc(C(F)(F)F)c3)n2)c(OCC)c1	inconclusive: 39.8 µM [inhibitor, single point]	–
CCCOC(=O)C1[C@H]2C(=O)N(Cc3ccco3)C[C@]23C=C[C@H]1O3 (some centres not stated)	inconclusive: 31.6 µM [activator, single point]	–
Cn1cc(C(=O)NC2CCCCCCC2)c(=O)c2cc(S(=O)(=O)N3CCCC3)ccc21	inconclusive: 39.8 µM [activator, single point]	–
COc1ccc(OC)c(-c2cc(C(=O)Nc3cc(C)n(Cc4ccc(Cl)cc4)n3)no2)c1	inconclusive: 31.6 µM [inhibitor, single point]	–
CC(=O)OC1CC2C(C)(C)C(O)CC(O)[C@@]2(C)C2CC[C@@]3(C)C(=CC(=O)OC3c3ccoc3)[C@]12C (some centres not stated)	inconclusive: 39.8 µM [activator, single point]	–

SMILES	Potency	max response, negative = inhibition
COc1ccc(NC(=O)[C@@H](c2ccccc2)N2Cc3ccccc3C2=O)cc1OC	inconclusive: 39.8 µM [activator, single point]	–
Cc1cccc(C)c1NC(=O)CN1C(=O)S/C(=C\c2cccn2C)C1=O	inconclusive: 3.98 µM [inhibitor, single point]	–
CCOc1ccc(CNC(=O)c2c(C)nn(-c3ccc(F)cc3)c2-n2cccc2)cc1	inconclusive: 39.8 µM [activator, single point]	–
O=C(Nc1ccc(SC(F)F)cc1)c1cc(-c2ccc3c(c2)OCCO3)on1	active: 7.94 µM	–
N#C/C(=C/c1ccc(N2CCOCC2)o1)c1ccc(Br)cc1	inconclusive: 25.1 µM [activator, partial curve]	–
Cc1ccc2nc3c(cc(C(=O)NCCCn4ccnc4)n3C)c(=O)n2c1	inconclusive: 39.8 µM [inhibitor, single point]	–
CC(=O)c1ccc(N2CCN(C(=O)c3cc4cc5cc(C)ccc5nc4s3)CC2)cc1	–	inactive: -1.57%
CCCNC(=O)CC1C(=O)N(Cc2ccccc2)C(C)c2nc3ccccc3n21 (configuration not stated)	inconclusive: 25.1 µM [inhibitor, single point]	–
Cc1ccc(CN(CC2CCCO2)C(=O)CN2C(=O)C(C(C)C)Oc3ccccc32)o1 (configuration not stated)	inconclusive: 25.1 µM [activator, single point]	–
CCOC(=O)N1CCN(C(=O)c2oc3ccc(S(=O)(=O)N4CCCCCC4)cc3c2C)CC1	inconclusive: 39.8 µM [activator, single point]	–
Cc1ccc(-c2nc(CS(=O)CC(=O)N3CCN(c4ccccc4)CC3)c(C)o2)cc1 (configuration not stated)	inconclusive: 39.8 µM [activator, single point]	–
CSc1nnc(-c2sc3cc(C(F)(F)F)cnc3c2-c2ccccc2)n1C	inconclusive: 25.1 µM [activator, single point]	–
Cc1ccc(C)c(-c2ccc(C(=O)O)o2)c1	–	inactive: 3.68%
COc1cccc(C2C(C(=O)Nc3ccccc3)=C(C)Nc3nc(-c4ccccc4)nn32)c1 (configuration not stated)	inconclusive: 39.8 µM [activator, single point]	–
CCc1ccc(-c2csc3ncn(CC(=O)N4CCOCC4)c(=O)c23)cc1	inconclusive: 39.8 µM [activator, single point]	–
CS(=O)(=O)N(CC(=O)NCCSc1ccccc1)c1cc(C(F)(F)F)ccc1Cl	–	inactive: -0.338%
COc1ccc(C(=O)NCCN2C(=O)S/C(=C\c3cccnc3)C2=O)c(OC)c1OC	inconclusive: 31.6 µM [activator, single point]	–
COc1ccc(NC(=O)CSc2c3c(nc4ccccc24)CCCC3)c(OC)c1	–	inactive: 12.3%
COc1ccc(-c2oc3c(CC=C(C)C)c(O[C@H]4OC(CO)C(O)C(O)C4O)cc(O)c3c(=O)c2O[C@@H]2OC(C)C(O)C(O)C2O)cc1 (some centres not stated)	inconclusive: 39.8 µM [activator, single point]	–
COc1ccc(OC)c(-n2c(SCC(C)=O)nnc2-c2cccc(S(=O)(=O)N(C)C)c2)c1	inconclusive: 39.8 µM [activator, single point]	–
CCN(CC)S(=O)(=O)c1ccc2c(c1)N(CC(=O)N1CCN(c3cccc(C(F)(F)F)c3)CC1)C(=O)CO2	inconclusive: 20 µM [activator, partial curve]	–
